# Reference: PubChem BioAssay AID504832 (National Center for Advancing Translational Sciences (NCATS), 2011)
# Values joined by “and” are separate entries in the source; they are usually repeats but may differ in a detail not shown here. Identical values can stand only once. Out of some 310,000 compounds screened, about 18,000 (5.8%) were called active. The inconclusive results got no clear call from the source; some entries with a clear call stand among them for comparison. Calls come from the whole dose curve; as a rule, active = well fitted inhibition curve with a large enough effect; inconclusive = small, poorly fitted or top-dose-only effect, or another doubt; inactive = no such curve, though single readings can be large or run the other way. Potencies of inconclusive entries are left out as doubtful fits.
# Experiment: Primary qHTS for delayed death inhibitors of the malarial parasite plastid, 48 hour incubation
# Conditions: P. falciparum luciferase growth in erythrocytes; series mostly up to 28.7 µM; activity change, negative = inhibition: at the top concentration
# Method in brief: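 In quantitative HTS format, infected erythrocytes bearing luciferase-reporter parasites were treated for a single generation at 37 C. Luminescence after adding detection reagent served as the growth measure.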
# % is set by controls: 0 for no effect and ±100 for the full control effect; potency is the fitted concentration of half-maximal effect; tags give direction and shape of the fitted curve.
Structure (SMILES),"activity change, negative = inhibition",Potency
O=C(N/N=C/C=C\c1ccco1)c1cccs1,inactive: -2.49%,–
O=C(OCCCOC(=O)c1ccc([N+](=O)[O-])o1)c1ccc([N+](=O)[O-])o1,–,active: 13.1 µM
CC(=O)c1cccc(NC(=O)CSc2nc(=O)n(Cc3ccccn3)c3c2CCC3)c1,–,"inconclusive [inhibitor, partial curve]"
Cc1ccc(C(=O)OCC(=O)c2c(N)n(C)c(=O)n(C)c2=O)cc1S(=O)(=O)N1CCOCC1,–,"inconclusive [inhibitor, single point]"
CNC(=O)c1[nH]cnc1C(=O)N[C@@H](Cc1ccccc1)C(=O)OC(C)(C)C,inactive: -0.403%,–
CCCCCCNc1c([N+](=O)[O-])c(=O)sc2ccccc12,–,active: 7.38 µM
NC(=O)C1(c2ccccc2)OC1c1ccccc1 (stereo not given),inactive: -3.23%,–
COc1cccc(C2=NCCc3cc4c(cc32)OCO4)c1OC,inactive: 21.9%,–
CCCn1cnc2cc(NC(=O)c3cccs3)ccc21,inactive: 290%,–
Cc1nc2sc3c(c2c2nnc(SCC(=O)NCc4ccco4)n12)CCCC3,inactive: -13%,–
CC(CCc1ccccc1)NC(=O)c1cccs1 (stereo not given),inactive: 3.31%,–
CN(c1cccc(NC(=O)CSc2ccc(Cl)cc2)c1)S(C)(=O)=O,inactive: 10.5%,–
CS(=O)(=O)N(CC(=O)NC1CCCC1)c1ccc(Oc2ccccc2)cc1,inactive: 12.5%,–
O=C(NCc1ccccc1F)C1CCCN1C(=O)Nc1ccccc1 (stereo not given),inactive: 8.06%,–
Cc1ccc(C)c2sc(N3CCN(C(=O)c4ccc([N+](=O)[O-])o4)CC3)nc12,–,active: 0.828 µM
Cc1cc(NC(=O)c2ccc(Cl)c(S(=O)(=O)N3CCCCC3)c2)no1,–,"inconclusive [inhibitor, single point]"
COc1cccc(Nc2ccc(-n3ccnc3)nn2)c1,–,"inconclusive [inhibitor, single point]"
CCOc1nc(-c2ccc(OC)cc2)ccc1-c1noc(-c2cc(OC)c(OC)c(OC)c2)n1,–,"inconclusive [inhibitor, single point]"
Cc1cc(/C=C2\SC(=S)NC2=O)c(C)n1-c1cccc(O)c1,inactive: 182%,–
Cc1cccc(C)c1NC(=O)c1cccc(COc2cc(Cl)ccc2Cl)c1,–,"inconclusive [inhibitor, single point]"
CCC(COC(=O)c1cc(OC)c(OC)c(OC)c1)(c1ccccc1)N(C)C (stereo not given),–,active: 15.1 µM and active: 14.7 µM
Cc1cc(NC(=O)CCl)on1,–,active: 10.4 µM
CC(C)(C)NC(=O)N1CCN(S(=O)(=O)c2ccc3c(c2)CCC3)CC1,–,"inconclusive [inhibitor, single point]"
O=S(=O)(c1ccc(NC(=S)NN=C2CCCCC2)cc1)N1CCOCC1,inactive: -15.2%,–
CCN1CCN(Cc2ccc(C)cc2C)CC1,inactive: 15.7%,–

Structure (SMILES),"activity change, negative = inhibition",Potency
CCN(C(=O)CCNC(=O)Cn1cnc2ccccc2c1=O)c1ccccc1F,inactive: 22.6%,–
COc1ccc(-n2nc(C(=O)Nc3ccc4c(c3)OCO4)c3ccccc3c2=O)cc1,–,active: 10.4 µM
COc1ccc(-c2[nH]ncc2/C=C(/C#N)C(=O)NC2CCCCCC2)cc1,–,"inconclusive [inhibitor, full curve]"
CC1(C)Cc2c(C#N)c(N3CCNCC3)nc(-c3ccco3)c2CS1,–,"inconclusive [inhibitor, single point]"
COC(=O)N/N=C/c1cc(N=Nc2ccccc2Cl)ccc1O,–,"inconclusive [inhibitor, full curve]"
COc1ccc(S(=O)(=O)N2CCC(C(=O)NCCOc3ccccc3F)CC2)cc1OC,–,"inconclusive [inhibitor, single point]"
O=c1cc(-c2ccccc2)[nH]c2ccccc12,–,active: 1.47 µM
O=C(N/C(=C/c1ccccc1F)C(=O)N1CCCCC1)c1ccccc1,inactive: -38.4%,–
COc1ccc2nc(N/C(N)=N/C(=S)Nc3c(C)cccc3C)nc(C)c2c1,–,"inconclusive [inhibitor, full curve, poor fit]"
Cc1onc(-c2ccccc2)c1CNC(=O)Nc1ccc(C(F)(F)F)cc1,–,active: 6.57 µM
C/C(=N\Nc1ccc(Cl)c(C(=O)O)c1)c1cc2ccccc2o1,inactive: 95.2%,–
COc1ccc(C)cc1NC(=O)c1ccc(S(=O)(=O)N2CCCCC2)cc1,–,"inconclusive [inhibitor, partial curve, poor fit]"
CO/N=C/c1cc([N+](=O)[O-])ccc1Sc1ccc(C)cc1,–,"inconclusive [inhibitor, single point]"
O=C1N(Cc2cccnc2)C[C@@H]2C[C@@H](c3cccc(OC4CCCC4)c3)N3CCC[C@@]123,–,active: 8.28 µM
COc1ccc(OC)c(C(c2nnnn2Cc2ccccc2)N2CCN(C3CCCCC3)CC2)c1 (stereo not given),–,active: 10.4 µM
COc1ccc(Nc2c3c(nc4ccccc24)CCC3)cc1,–,"inconclusive [inhibitor, single point]"
O=C(Nc1nc(-c2ccc(Cl)cc2)cs1)c1cccnc1,inactive: -3.26%,–
C=C1CCN(C(Cc2ccccc2)C(=O)OC)S(=O)(=O)c2ccc(F)cc21 (stereo not given),inactive: -14.2%,–
CCOc1cccc(CN2CCCC(N3CCN(c4cccc(Cl)c4)CC3)C2)c1O (stereo not given),–,"inconclusive [inhibitor, full curve]"
CC1CN(C(=O)c2cc3c(s2)CCC3)CC(C)O1 (stereo not given),–,"inconclusive [inhibitor, partial curve, poor fit]"
NNC(=O)c1[nH]c2ccc(Br)cc2c1-c1ccccc1,–,"inconclusive [inhibitor, partial curve]"
COCCNc1nc(-c2cc(C)n(CCc3ccc(OC)cc3)c2C)cs1,–,active: 2.62 µM
O=Cc1c(SCCO)nc2ccccn2c1=O,inactive: 3.76%,–
CCOC(=O)Cc1csc(NC(=S)NC(=O)c2ccccc2C)n1,–,"inconclusive [inhibitor, full curve]"
COc1ccc(NC(=O)c2ccc(S(=O)(=O)N3CCOCC3)cc2)c(OC)c1,inactive: -3.58%,–

Structure (SMILES),"activity change, negative = inhibition",Potency
O=C(/C=C/c1ccccc1)Nc1nc(-c2ccncc2)cs1,–,"inconclusive [inhibitor, full curve, poor fit]"
Cc1ccccc1CN(c1ccc(C(=O)N2CCc3ccccc3C2)cc1)S(C)(=O)=O,–,"inconclusive [inhibitor, partial curve]"
COc1cccc(CN(C)C(=O)COc2ccc(C(=O)c3ccc(Cl)cc3)cc2)c1OC,–,"inconclusive [inhibitor, partial curve, poor fit]"
O=C(CSc1ccc2ccccc2n1)N/N=C/c1ccccc1O,–,"inconclusive [inhibitor, single point]"
C[N+](C)(C)Cc1ccccc1,–,"inconclusive [inhibitor, partial curve, poor fit]"
Cn1c(=O)c2cc(S(=O)(=O)Nc3ccc4c(c3)OCO4)ccc2n(C)c1=O,–,"inconclusive [inhibitor, partial curve]"
C=CCCC(=O)Nc1nc(C)c(-c2csc(Nc3cc(OC)ccc3OC)n2)s1,–,"inconclusive [inhibitor, partial curve]"
CCOC(=O)C(C)/C(C)=N\Nc1ccc([N+](=O)[O-])cc1[N+](=O)[O-] (stereo not given),inactive: 21.8%,–
Cc1ccc2[nH]c3c(NCc4ccco4)ncnc3c2c1,–,"inconclusive [inhibitor, single point]"
CCOc1ccc(NC(=O)COC(=O)C2C3CC4OC(=O)C2C4C3)cc1 (stereo not given),–,"inconclusive [inhibitor, single point]"
O=C(C1CCCN(c2nnc(-n3cccc3)s2)C1)N1CCC2(CC1)OCCO2 (stereo not given),–,"inconclusive [inhibitor, partial curve]"
C=CCNC(=S)N/N=C(\C)c1ccc(-n2ccnc2)cc1,–,"inconclusive [inhibitor, single point]"
CCN(CC)CCn1c(NCc2cc(OC)ccc2OC)nc2ccccc21,–,"inconclusive [inhibitor, single point]"
Cc1cccc(C)c1Nc1c(-c2ccccc2O)nc2ncccn12,–,active: 2.94 µM
CCCCCCCC(=O)Nc1ccc(C(=O)N/N=C/c2cccc([N+](=O)[O-])c2)cc1,inactive: -0.339%,–
C/C(=N\NC(=O)c1cccc(Br)c1)c1ccccn1,–,active: 0.738 µM
O=C(Nc1ccc([N+](=O)[O-])cc1)C1COc2ccccc2O1 (stereo not given),–,"inconclusive [inhibitor, single point]"
O=C(N[C@@H](Cc1ccccc1)C(=O)OCc1ccccc1)c1nc[nH]c1C(=O)NC1CCNCC1,–,"inconclusive [inhibitor, partial curve, poor fit]"
Cc1ccc(O)c(-c2[nH]ncc2C(=O)c2ccc(Cl)cc2)c1,–,"inconclusive [inhibitor, partial curve]"
Cc1ccc(-c2nnc3n2N=C(c2ccccc2)CS3)cc1,inactive: -7.72%,–
N#Cc1ccc(NC(=O)CN2CCN(C(=O)c3cccs3)CC2)cc1Cl,–,"inconclusive [inhibitor, single point]"
COc1cccc(OCc2nn3c(=O)c(-c4ccccc4)nnc3s2)c1,–,"inconclusive [inhibitor, single point]"
Cc1ccccc1NS(=O)(=O)c1ccc2oc(=O)ccc2c1,–,"inconclusive [inhibitor, single point]"
Cc1cccn2c(=O)c3cc(C(=O)NCC4CCCO4)c(=N)n(C4CCCCC4)c3nc12 (stereo not given),–,"inconclusive [inhibitor, single point]"
COc1ccc(CCN2C(=O)N[C@@H](C(C)C)C2=O)cc1,inactive: 9.41%,–
